# Laboratory results from the supplement of paper PMC8728848.
# The list shows a part of the results.
# What was measured:
# Experiment in all cases: glycan array binding signal (z-score within array); higher = stronger binding
# Conditions in all cases: glycan notation: IUPAC condensed, linker removed
# [1] = molecular target: Gal(b1-3)GlcNAc(b1-6)[Gal(b1-3)]GalNAc
# Method in brief: (§1)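 Negative Z-scores can be read as non-binding. The Z-score is calculated within each array and then averaged across arrays of one protein sequence at different concentrations or buffers and across linkers. Arrays, 3228 in all, were curated from the Consortium for Functional Glycomics database and kept only where the protein sequence was available.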
# Gal(b1-3)GlcNAc6S = molecular target: Gal(b1-3)GlcNAc6S
# Method in brief: as §1
# [2] = molecular target: Gal(b1-3)[Fuc(a1-4)]GlcNAc
# Method in brief: as §1
# [3] = molecular target: Gal(b1-3)[Fuc(a1-4)]GlcNAc(b1-2)Man
# Method in brief: as §1
# [4] = molecular target: Gal(b1-3)[Fuc(a1-4)]GlcNAc(b1-2)Man(a1-3)[Gal(b1-3)[Fuc(a1-4)]GlcNAc(b1-2)Man(a1-6)]Man(b1-4)GlcNAc(b1-4)[Fuc(a1-6)]GlcNAc
# Method in brief: as §1
# [5] = molecular target: Gal(b1-3)[Fuc(a1-4)]GlcNAc(b1-3)Gal(b1-3)[Fuc(a1-4)]GlcNAc
# Method in brief: as §1
# [6] = molecular target: Gal(b1-3)[Fuc(a1-4)]GlcNAc(b1-3)Gal(b1-4)[Fuc(a1-3)]GlcNAc
# Method in brief: as §1
# [7] = molecular target: Gal(b1-3)[Fuc(a1-4)]GlcNAc(b1-6)GalNAc
# Method in brief: as §1
# [8] = molecular target: Gal(b1-3)[GlcNAc(b1-6)]GalNAc
# Method in brief: as §1
# [9] = molecular target: Gal(b1-3)[Neu5Ac(a2-6)]GalNAc
# Method in brief: as §1
# [10] = molecular target: Gal(b1-3)[Neu5Ac(a2-6)]GlcNAc(b1-4)Gal(b1-4)Glc
# Method in brief: as §1
# [11] = molecular target: Gal(b1-3)[Neu5Ac(b2-6)]GalNAc
# Method in brief: as §1
# Gal(b1-4)Gal = molecular target: Gal(b1-4)Gal
# Method in brief: as §1
# [12] = molecular target: Gal(b1-4)GalNAc(a1-3)[Fuc(a1-2)]Gal(b1-4)GlcNAc
# Method in brief: as §1
# [13] = molecular target: Gal(b1-4)GalNAc(b1-3)[Fuc(a1-2)]Gal(b1-4)GlcNAc
# Method in brief: as §1
# Gal(b1-4)Glc = molecular target: Gal(b1-4)Glc
# Method in brief: as §1
# Gal(b1-4)Glc6S = molecular target: Gal(b1-4)Glc6S
# Method in brief: as §1
# Gal(b1-4)GlcNAc = molecular target: Gal(b1-4)GlcNAc
# Method in brief: as §1
# [14] = molecular target: Gal(b1-4)GlcNAc(a1-6)Gal(b1-4)GlcNAc
# Method in brief: as §1
# Gal(b1-4)GlcNAc(b1-2)Man = molecular target: Gal(b1-4)GlcNAc(b1-2)Man
# Method in brief: as §1
# [15] = molecular target: Gal(b1-4)GlcNAc(b1-2)Man(a1-3)Man(b1-4)GlcNAc(b1-4)GlcNAc
# Method in brief: as §1
# [16] = molecular target: Gal(b1-4)GlcNAc(b1-2)Man(a1-3)[Gal(b1-4)GlcNAc(b1-2)Man(a1-6)]Man(b1-4)GlcNAc(b1-4)GlcNAc
# Method in brief: as §1
# [17] = molecular target: Gal(b1-4)GlcNAc(b1-2)Man(a1-3)[Gal(b1-4)GlcNAc(b1-2)Man(a1-6)]Man(b1-4)GlcNAc(b1-4)[Fuc(a1-6)]GlcNAc
# Method in brief: as §1
# [18] = molecular target: Gal(b1-4)GlcNAc(b1-2)Man(a1-3)[Gal(b1-4)GlcNAc(b1-2)Man(a1-6)][Gal(b1-4)GlcNAc(b1-4)]Man(b1-4)GlcNAc(b1-4)[Fuc(a1-6)]GlcNAc
# Method in brief: as §1
# [19] = molecular target: Gal(b1-4)GlcNAc(b1-2)Man(a1-3)[Gal(b1-4)GlcNAc(b1-2)Man(a1-6)][GlcNAc(b1-4)]Man(b1-4)GlcNAc(b1-4)[Fuc(a1-6)]GlcNAc
# Method in brief: as §1
# [20] = molecular target: Gal(b1-4)GlcNAc(b1-2)Man(a1-3)[GlcNAc(b1-2)Man(a1-6)]Man(b1-4)GlcNAc(b1-4)GlcNAc
# Method in brief: as §1
# [21] = molecular target: Gal(b1-4)GlcNAc(b1-2)Man(a1-3)[GlcNAc(b1-4)][Gal(b1-4)GlcNAc(b1-2)Man(a1-6)]Man(b1-4)GlcNAc(b1-4)GlcNAc
# Method in brief: as §1
# [22] = molecular target: Gal(b1-4)GlcNAc(b1-2)Man(a1-3)[Man(a1-6)]Man(b1-4)GlcNAc(b1-4)GlcNAc
# Method in brief: as §1
# [23] = molecular target: Gal(b1-4)GlcNAc(b1-2)Man(a1-6)Man(b1-4)GlcNAc(b1-4)GlcNAc
# Method in brief: as §1
# [24] = molecular target: Gal(b1-4)GlcNAc(b1-2)Man(a1-6)[GlcNAc(b1-2)Man(a1-3)]Man(b1-4)GlcNAc(b1-4)GlcNAc
# Method in brief: as §1
# [25] = molecular target: Gal(b1-4)GlcNAc(b1-2)Man(a1-6)[Man(a1-3)]Man(b1-4)GlcNAc(b1-4)GlcNAc
# Method in brief: as §1
# [26] = molecular target: Gal(b1-4)GlcNAc(b1-2)[Gal(b1-4)GlcNAc(b1-4)]Man(a1-3)[Gal(b1-4)GlcNAc(b1-2)Man(a1-6)]Man(b1-4)GlcNAc(b1-4)GlcNAc
# Method in brief: as §1
# [27] = molecular target: Gal(b1-4)GlcNAc(b1-2)[Gal(b1-4)GlcNAc(b1-4)]Man(a1-3)[Gal(b1-4)GlcNAc(b1-2)[Gal(b1-4)GlcNAc(b1-6)]Man(a1-6)]Man(b1-4)GlcNAc(b1-4)GlcNAc
# Method in brief: as §1
# [28] = molecular target: Gal(b1-4)GlcNAc(b1-2)[Gal(b1-4)GlcNAc(b1-4)]Man(a1-3)[GlcNAc(b1-4)][Gal(b1-4)GlcNAc(b1-2)Man(a1-6)]Man(b1-4)GlcNAc(b1-4)GlcNAc
# Method in brief: as §1
# [29] = molecular target: Gal(b1-4)GlcNAc(b1-2)[Gal(b1-4)GlcNAc(b1-4)]Man(a1-3)[GlcNAc(b1-4)][Gal(b1-4)GlcNAc(b1-2)[Gal(b1-4)GlcNAc(b1-6)]Man(a1-6)]Man(b1-4)GlcNAc(b1-4)GlcNAc
# Method in brief: as §1
# [30] = molecular target: Gal(b1-4)GlcNAc(b1-2)[Gal(b1-4)GlcNAc(b1-6)]Man(a1-6)[Gal(b1-4)GlcNAc(b1-2)Man(a1-3)]Man(b1-4)GlcNAc(b1-4)GlcNAc
# Method in brief: as §1
# [31] = molecular target: Gal(b1-4)GlcNAc(b1-2)[Gal(b1-4)GlcNAc(b1-6)]Man(a1-6)[Gal(b1-4)GlcNAc(b1-2)Man(a1-3)]Man(b1-4)GlcNAc(b1-4)[Fuc(a1-6)]GlcNAc
# Method in brief: as §1
binder,measurement,setting,value
SP15308A-bot-339-19-339 (Bacteroides ovatus) (protein) ACNNEWEDEQYEQYISFKSPIPAGGEGVTDIYVRYKEDGKVTYRLPIVVSGSTTNTLDREVHIAVDKDTLETLNIERFSIHRPGLWYTALEEDKYDFPKTVHISAGSSVEQLNIDFNLQGIDMLEKWVLPLTIVDDPSYNYKSHPRKNYAKALLRVIPFNNYSGSYTSSAMKVYTYINGKPDTNARTANKRTGYVINDNTVFFYAGLISEDLDKEVREKYKINVHFNEDGTLHMEQGDPTNKMKFELIGTPTYSKTSVMDATRPYLERRYVQIMFEYDFEDFSYGGNGVDVIPIKYKVEGSMTLQRNINTQIPDEDQQIEW,glycan array binding signal (z-score),[1],-0.274
same,glycan array binding signal (z-score),Gal(b1-3)GlcNAc6S,-0.287
same,glycan array binding signal (z-score),[2],-0.203
same,glycan array binding signal (z-score),[3],0.303
same,glycan array binding signal (z-score),[4],0.611
same,glycan array binding signal (z-score),[5],-0.08
same,glycan array binding signal (z-score),[6],-0.228
same,glycan array binding signal (z-score),[7],0.189
same,glycan array binding signal (z-score),[8],-0.316
same,glycan array binding signal (z-score),[9],-0.201
same,glycan array binding signal (z-score),[10],0.766
same,glycan array binding signal (z-score),[11],-0.06
same,glycan array binding signal (z-score),Gal(b1-4)Gal,-0.339
same,glycan array binding signal (z-score),[12],-0.475
same,glycan array binding signal (z-score),[13],-0.312
same,glycan array binding signal (z-score),Gal(b1-4)Glc,-0.451
same,glycan array binding signal (z-score),Gal(b1-4)Glc6S,0.631
same,glycan array binding signal (z-score),Gal(b1-4)GlcNAc,-0.185
same,glycan array binding signal (z-score),[14],-0.497
same,glycan array binding signal (z-score),Gal(b1-4)GlcNAc(b1-2)Man,1.02
same,glycan array binding signal (z-score),[15],-0.191
same,glycan array binding signal (z-score),[16],-0.394
same,glycan array binding signal (z-score),[17],-0.014
same,glycan array binding signal (z-score),[18],-0.393
same,glycan array binding signal (z-score),[19],-0.323
same,glycan array binding signal (z-score),[20],-0.46
same,glycan array binding signal (z-score),[21],-0.183
same,glycan array binding signal (z-score),[22],-0.153
same,glycan array binding signal (z-score),[23],-0.545
same,glycan array binding signal (z-score),[24],-0.093
same,glycan array binding signal (z-score),[25],0.225
same,glycan array binding signal (z-score),[26],-0.051
same,glycan array binding signal (z-score),[27],-0.036
same,glycan array binding signal (z-score),[28],-0.429
same,glycan array binding signal (z-score),[29],-0.651
same,glycan array binding signal (z-score),[30],0.11
same,glycan array binding signal (z-score),[31],-0.254
